What all share (test): Primary Screen for Target Class Profiling of Small Molecule Inhibitors of Methyltransferases
In assay [1] the target is Glycine N-methyltransferase (Homo sapiens) (UniProt Q14749). To be noted: purified enzyme, MTase-Glo SAH luminescence; measured here: GNMT inhibition; at 40 µM; stronger effect = lower value. In short, it runs like this:
(§1)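 Each enzyme was assayed with SAM and its substrate. SAH formation detected by MTase-Glo luminescence; single-point 40 uM screen[…].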

The target of assay [2] is Guanidinoacetate N-methyltransferase (Homo sapiens) (UniProt Q14353). To be noted: purified enzyme, MTase-Glo SAH luminescence; measured here: GAMT inhibition; at 40 µM; stronger effect = lower value. In short, it runs like this:
as §1

Assay [3] deals with Histamine N-methyltransferase (Homo sapiens) (UniProt P50135). To be noted: purified enzyme, MTase-Glo SAH luminescence; measured here: HNMT inhibition; at 40 µM; stronger effect = lower value. Put shortly: as §1
The target of assay [4] is Nicotinamide N-methyltransferase (Homo sapiens) (UniProt P40261). To be noted: purified enzyme, MTase-Glo SAH luminescence; measured here: NNMT inhibition; at 40 µM; stronger effect = lower value. Put shortly:
as §1

The target in assay [5] is Phenylethanolamine N-methyltransferase (Homo sapiens) (UniProt P11086). As to conditions: purified enzyme, MTase-Glo SAH luminescence; measured here: PNMT inhibition; at 40 µM; stronger effect = lower value. Put shortly:
as §1

Experimental findings from PubChem BioAssay AID1745853 (National Center for Advancing Translational Sciences (NCATS), 2022) are described below.

Structures are written as SMILES. This is one part of the list. Shown are side measurements of this screen, not its main read-out; they come without a call. Square brackets hold non-standard residues; d marks the D form. Peptide text beside a SMILES is read from it. Hyp = O=C(O)[CH]1C[CH](O)CN1; Phe(ol) = N[CH](CO)Cc1ccccc1; Iva = CC[C](C)(N)C(=O)O; Aib = CC(C)(N)C(=O)O
% is set by controls: 0 for no effect and ±100 for the full control effect.

Regarding `O=C(Nc1cc(-c2ccccc2)nn1-c1ccccc1F)c1ccc([N+](=O)[O-])cc1`, the activity change, negative = inhibition is 5.39% in assay [1]; -0.545% in assay [2]; 10.4% in assay [3]; -15.2% in assay [4]; -1.27% in assay [5].

Take `CCN(CC)CCNC(=O)c1cc2n(n1)CC(C)(C(=O)NC1CCCCC1)N(C)C2=O` (stereo not given): the activity change, negative = inhibition was found to be 7.6% in assay [1]; 1.29% in assay [2]; 7.56% in assay [3]; 12.5% in assay [4]; 7.17% in assay [5].

As for `COc1ccc(C)cc1NC(=O)C1CCCN(c2cn[nH]c(=O)c2)C1` (stereo not given), the activity change, negative = inhibition in assay [1] was -9.87%; in assay [2], -9.74%; in assay [3], -5.25%; in assay [4], -9.85%; in assay [5], -8.78%.

On to `O=C(NCCc1ccccc1)N1CCn2cccc2C1Cc1ccccc1` (stereo not given), for which the activity change, negative = inhibition in assay [1] is 2.39%; in assay [2] it was 2.67%; in assay [3] it was -32.1%; in assay [4], -0.471%; in assay [5], -1.63%.

Consider `COc1cccc(NC(=O)CCc2nnc3n(Cc4ccc(F)cc4)c(=O)c4ccccc4n23)c1`, for which the activity change, negative = inhibition was 2.29% in assay [1]; -0.144% in assay [2]; 1.02% in assay [3]; -4.1% in assay [4]; -3.17% in assay [5].

On to `CC(C)COc1ccc(CNC(=O)N(Cc2ccc(F)cc2)C2CCN(C)CC2)cc1`, for which the activity change, negative = inhibition in assay [1] was 3.16%; in assay [2] it was 8.16%; in assay [3], 1.88%; in assay [4], -9.58%; in assay [5], 0.736%.

For `CS(=O)(=O)N1CCC(Oc2ccc(C(=O)NCCc3ccccn3)cc2Cl)CC1`, the activity change, negative = inhibition is -2.34% in assay [1]; 0.74% in assay [2]; 0.348% in assay [3]; -2.02% in assay [4]; 3.63% in assay [5].

Take `CC(C)CNC(=O)c1ccc2c(=O)n(Cc3ccccc3)c3nn(CC(=O)NC(C)C)c(=O)n3c2c1`: the activity change, negative = inhibition in assay [1] is 0.888%; in assay [2], 0%; in assay [3] it was 1.81%; in assay [4], -0.711%; in assay [5] it was -0.251%.

Consider `CCC(C)(NC(=O)C(CCC(N)=O)NC(=O)C1CC(O)CN1C(=O)C(C)(C)NC(=O)C(C)(C)NC(=O)C(CC(C)C)NC(=O)CNC(=O)C(NC(=O)C(C)(C)NC(=O)C(C)(C)NC(=O)C(C)(C)NC(=O)C(Cc1ccccc1)NC(C)=O)C(C)C)C(=O)N1CC(O)CC1C(=O)NC(C)(C)C(=O)NC(CO)Cc1ccccc1` (stereo not given) (Ac-F[Aib][Aib][Aib]VGL[Aib][Aib][Hyp]Q[Iva][Hyp][Aib][Phe(ol)]; configuration not given here), for which the activity change, negative = inhibition was -2.66% in assay [1]; 14.4% in assay [2]; 12.2% in assay [3]; 1.35% in assay [4]; -3.74% in assay [5].

Take `COC[C@@H]1CN(C(=O)c2ncccc2C)C[C@H]1C(N)=O`: the activity change, negative = inhibition in assay [1] is -0.148%; in assay [2], 3.59%; in assay [3], 3.07%; in assay [4], -0.159%; in assay [5], -6.14%.

As to `CN(c1ccccc1CNc1nc(Nc2ccc3c(c2)CC(=O)N3)ncc1C(F)(F)F)S(C)(=O)=O`, the activity change, negative = inhibition in assay [1] was -7.49%; in assay [2], 11%; in assay [3], 2.94%; in assay [4], -53.7%; in assay [5], -0.255%.

As to `O=C(Cn1nc2n(CCc3ccccc3)c(=O)c3ccccc3n2c1=O)Nc1cccc(Cl)c1`, the activity change, negative = inhibition in assay [1] worked out at 4.08%; in assay [2] it was 5.22%; in assay [3] it was 3.15%; in assay [4] it was 2.46%; in assay [5], 3.34%.

Take `O=C1CCN(CC(O)C(F)(F)F)c2ccccc2CCN1Cc1ccccc1` (stereo not given): the activity change, negative = inhibition in assay [1] was -2.02%; in assay [2] it was -4.4%; in assay [3], 0.322%; in assay [4], -12.5%; in assay [5] it was -9.8%.

Consider `Cc1noc(C)c1CC(=O)N1CCCCCCNC(=O)[C@@H]2CCCC[C@@H]21`, for which the activity change, negative = inhibition in assay [1] was -2.38%; in assay [2], -1.86%; in assay [3], 0.24%; in assay [4], -7.67%; in assay [5], -3.77%.

Regarding `COc1ccc(CCNC(=O)c2c(C)noc2-c2cc(OC)cc(OC)c2)cc1`, the activity change, negative = inhibition in assay [1] is -0.743%; in assay [2] it was 0.987%; in assay [3], -0.898%; in assay [4], -2.62%; in assay [5] it was -3.37%.

Consider `Cc1ccc(CNC(=O)Cn2ccc3cc(S(=O)(=O)N4CCCCC4)ccc32)o1`, for which the activity change, negative = inhibition was 1.03% in assay [1]; 4.83% in assay [2]; 3.6% in assay [3]; -0.106% in assay [4]; 1.97% in assay [5].

`NS(=O)(=O)c1cc2c(cc1Cl)NC(C1CC3C=CC1C3)NS2(=O)=O` (stereo not given): the activity change, negative = inhibition in assay [1] is -2.66%; in assay [2], -4.28%; in assay [3], 6.57%; in assay [4], -16.1%; in assay [5] it was -10.4%.

With `CCCCN1C(=O)CC[C@H]2CN(C(=O)Cc3c[nH]c(=O)n(C)c3=O)CC[C@H]21`, the activity change, negative = inhibition was -5.04% in assay [1]; -4.86% in assay [2]; -0.95% in assay [3]; -11% in assay [4]; 3.76% in assay [5].

As for `CCn1cc(C(=O)N2C[C@@H](CO)[C@H](c3ccccn3)C2)cn1`, the activity change, negative = inhibition is -2.75% in assay [1]; -4.68% in assay [2]; -2.49% in assay [3]; -7.55% in assay [4]; -1.78% in assay [5].

For the compound `CCCn1c(=O)c2ccc(Cl)cc2n2c(=O)n(CC(=O)c3ccc(OC)cc3)nc12`, the activity change, negative = inhibition was 0.043% in assay [1]; 0% in assay [2]; 6.9% in assay [3]; -1.93% in assay [4]; 2.64% in assay [5].

Consider `S=C(S)N1CCCC1`, for which the activity change, negative = inhibition was -45.9% in assay [1]; -0.701% in assay [2]; -3.66% in assay [3]; -10.7% in assay [4]; 2.18% in assay [5].

`CC1=C(C(=O)O[C@@H]2O[C@H](COC3OCC(O)C(O)C3O)[C@@H](O)[C@H](O)[C@H]2O)C(C)(C)CCC1` (stereo not given in full): the activity change, negative = inhibition in assay [1] was 0%; in assay [2], -12.5%; in assay [3], 10.8%; in assay [4] it was -41%; in assay [5] it was -6.57%.

Turning to `CC1(C)CCC2(C(=O)OC3OCC(O)C(O)C3O)CCC3(C)C(=CCC4C5(C)CC(O)C(OC6OC(COC7OCC(O)C(O)C7O)C(O)C(O)C6O)C(C)(C)C5CCC43C)C2C1` (stereo not given), the activity change, negative = inhibition in assay [1] is 3.25%; in assay [2] it was 14.1%; in assay [3], 11%; in assay [4], -0.599%; in assay [5] it was 9.32%.

With `Cc1ccc(Cn2c(=O)c3ccccc3n3c(CCC(=O)N4CCN(c5ccccc5F)CC4)nnc23)cc1`, the activity change, negative = inhibition in assay [1] is -1.22%; in assay [2] it was 0%; in assay [3], 9.12%; in assay [4], -10.1%; in assay [5] it was -3.3%.

`Cc1nc(-c2cccc(Cl)c2)n(CC(=O)NCc2ccc(F)cc2)c(=O)c1CCO`: the activity change, negative = inhibition in assay [1] was -6.53%; in assay [2] it was -7.15%; in assay [3], -4.47%; in assay [4] it was -13.6%; in assay [5], 0.706%.

For the compound `Cc1cc(C)cc(NC(=O)Cn2nc3n(CCc4ccccc4)c(=O)c4ccccc4n3c2=O)c1`, the activity change, negative = inhibition in assay [1] came to 7.17%; in assay [2], 2.99%; in assay [3] it was 9.38%; in assay [4] it was 3.8%; in assay [5], 6.24%.

`CCOc1ccccc1CN1CCC(C)(c2noc(C3CCOCC3)n2)CC1`: the activity change, negative = inhibition is -0.911% in assay [1]; -0.197% in assay [2]; -12.7% in assay [3]; -5.15% in assay [4]; -1.72% in assay [5].

For `COc1cc(O)cc(O[C@@H]2O[C@H](CO)[C@@H](O[C@@H]3OC[C@](O)(CO)[C@H]3O)[C@H](O)[C@H]2O)c1OC`, the activity change, negative = inhibition was 3.62% in assay [1]; 8.63% in assay [2]; 3.21% in assay [3]; -4.94% in assay [4]; 7.79% in assay [5].

Consider `CCc1ccc(CN2C(=O)c3cc(-c4ccccc4)nn3CC2(C)C(=O)NCCCOC)cc1` (stereo not given), for which the activity change, negative = inhibition in assay [1] is -5.21%; in assay [2] it was -0.869%; in assay [3], 4.24%; in assay [4], -1.33%; in assay [5], -1.5%.

`Cc1c(Cl)cccc1N1C(=O)c2cc3occc3n2CC1(C)C(=O)NC1CCCCCCC1` (stereo not given): the activity change, negative = inhibition turned out to be 2.23% in assay [1]; 2.07% in assay [2]; 8.25% in assay [3]; 0.665% in assay [4]; 0.937% in assay [5].

Take `O=C(/C=C/c1ccc(O)c(O)c1)O[C@H]1[C@H](OC2CCCCC2O)O[C@H](CO)[C@@H](O)[C@@H]1O` (stereo not given in full): the activity change, negative = inhibition was -10.8% in assay [1]; -38.9% in assay [2]; 0.054% in assay [3]; -43.7% in assay [4]; -2.42% in assay [5].

With `COc1ccc(CN2Cc3[nH]nc(-c4cnc(OC)nc4)c3CC2=O)cc1`, the activity change, negative = inhibition in assay [1] was -6.21%; in assay [2], -2.84%; in assay [3], -4.48%; in assay [4], -9.3%; in assay [5] it was -25.6%.

`COc1ccc(N2C(=O)c3cc(-c4ccccc4)nn3CC2(C)C(=O)NCc2ccccc2)cc1` (stereo not given): the activity change, negative = inhibition in assay [1] was -4.39%; in assay [2], 5.44%; in assay [3], 0.833%; in assay [4], -2.1%; in assay [5], -1.18%.

Regarding `CCC(C)/C=C(C)/C=C/C1=CC2=C(Cl)C(=O)C(C)(O)C(=O)C2(O)C(OC)O1` (stereo not given), the activity change, negative = inhibition in assay [1] was 0%; in assay [2], 8.29%; in assay [3], 8.16%; in assay [4], -6.02%; in assay [5], 3.84%.

On to `COc1cc(O)c(C(=O)O)c(CCc2ccccc2)c1`, for which the activity change, negative = inhibition in assay [1] is -0.581%; in assay [2], -7.6%; in assay [3], -1.39%; in assay [4] it was -27.3%; in assay [5], -3.77%.
